This is an account of results in the supplement of paper PMC9446081.

Molecules are shown by their SMILES. Hit rate of the full screen: of about 39,000 compounds, about 220 (0.56%) showed activity. Some of the results follow.
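Further: static incubation at 37 °C against the wild-type strain, values averaged over two biological replicates.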

The assay has as its system Escherichia coli K-12 BW25113. Put plainly: relative growth (OD600 normalised to plate interquartile mean) (fraction); higher = less growth inhibition, active = 0.2 or less. The following applies: 50 µM; LB; incubation time: overnight (16-24 h).
For `CN(C)CN1C(=O)c2ccccc2C1=O`, the relative growth was inactive: 1.01.
In the case of `C[C@H]1CN([C@@H](C)CO)C(=O)c2cc(NC(=O)Cn3cnnn3)ccc2O[C@@H]1CN(C)Cc1ccc(Oc2ccccc2)cc1` it was inactive: 0.985.
Then `C[C@@H]1CN([C@H](C)CO)C(=O)c2cc(NC(=O)c3ccccc3)ccc2O[C@@H](C)CCCCO[C@H]1CN(C)C(=O)NC1CCCCC1`, with inactive: 0.967.
In the case of `Cc1ccc(S[C@]2(C(=O)NCCN3CCOCC3)CC(=O)N(Cc3cc(C(F)(F)F)cc(C(F)(F)F)c3)[C@@H]2c2ccc(CO)cc2)cc1` it was inactive: 0.912; in that of `COc1ccc(-c2ccc3c(c2)O[C@H](CN(C)CC2CCOCC2)[C@H](C)CN([C@@H](C)CO)S3(=O)=O)cc1`, inactive: 0.988.
On to `CC(C)=CCC[C@](C)(O[C@@H]1O[C@H](CO[C@@H]2OC[C@@H](O)[C@H](O)[C@H]2O)[C@@H](O)[C@H](O)[C@H]1O)[C@H]1CC[C@]2(C)[C@@H]1[C@H](O)C[C@@H]1[C@@]3(C)CC[C@H](O[C@@H]4O[C@H](CO)[C@@H](O)[C@H](O)[C@H]4O)C(C)(C)[C@@H]3CC[C@]12C`, for which the relative growth is inactive: 0.738.
Then `Cc1ccc(S(=O)(=O)N(C)C[C@H]2Oc3c(NC(=O)Nc4ccc(C(F)(F)F)cc4)cccc3C(=O)N([C@@H](C)CO)C[C@@H]2C)cc1`, with inactive: 0.81.
Then `COCC(=O)Nc1ccc2c(c1)C(=O)N(C)C[C@@H](OC)[C@H](C)CN(C(=O)c1ccccc1F)[C@@H](C)CO2`, with inactive: 1.06; and `COc1ccc(CN(C)C[C@H]2Oc3ccc(NS(C)(=O)=O)cc3CC(=O)N([C@H](C)CO)C[C@H]2C)cc1`, with inactive: 0.992.
With `O=C1N(Cc2ccccc2)Cc2ccccc2[C@H]2OC(c3ccc(OCCCO)cc3)=N[C@@]12CCS(=O)(=O)c1ccccc1`, the relative growth was inactive: 1.04.
As to `C[C@H]1CN([C@@H](C)CO)C(=O)c2cccc(NC(=O)c3cnccn3)c2O[C@H]1CN(C)Cc1ccc2c(c1)OCO2`, the relative growth was inactive: 0.989.
`CO[C@@H]1[C@@H](O)[C@H](O)[C@H](O)[C@H](O)[C@@H]1O`: the relative growth was inactive: 0.965.
In the case of `Cc1nn(CC(=O)O)c(=O)c2cccn12` it was inactive: 1.01; in that of `CO[C@@H]1CN(C)C(=O)c2cc(NC(=O)C3CC3)ccc2OC[C@@H](C)N(C(=O)Nc2ccc(C(F)(F)F)cc2)C[C@H]1C`, inactive: 0.95; in that of `CCOC(=O)[C@H](Cc1ccccc1)NC(=O)Cn1cc(C(=O)NO)nn1`, inactive: 1.
In the case of `Cc1noc(C)c1S(=O)(=O)Nc1cccc2c1O[C@@H](CN(C)S(=O)(=O)c1ccc(Cl)cc1)[C@@H](C)CN([C@H](C)CO)C2=O` it was inactive: 1.01.
Regarding `COc1ccc(S(=O)(=O)Nc2ccc3c(c2)C(=O)N([C@H](C)CO)C[C@H](C)[C@@H](CN(C)S(=O)(=O)c2ccc(Cl)cc2)OCCCC[C@H](C)O3)cc1`, the relative growth is inactive: 1.03.
Consider `C[C@@H]1CN([C@@H](C)CO)C(=O)c2cc(NC(=O)CCC(F)(F)F)ccc2O[C@@H](C)CCCCO[C@H]1CN(C)CC1CCCCC1`, for which the relative growth is inactive: 0.98.
For the compound `CCc1nc2ccc(C(=O)NCCc3ccccn3)cn2c1N(CC)Cc1cccc(Br)c1`, the relative growth is inactive: 1.02.
In the case of `O=C(O)CCCN=C1NC(=O)CC(=O)N1` it was inactive: 1.02; in that of `Cc1ccc(S(=O)(=O)N(C)C[C@H]2Oc3ccc(NS(=O)(=O)c4ccccc4)cc3C(=O)N([C@H](C)CO)C[C@@H]2C)cc1`, inactive: 0.987; in that of `NC(=O)c1cnc2n(c1=O)CCS2`, inactive: 1.
In the case of `COc1ccc(S(=O)(=O)Nc2ccc3c(c2)C(=O)N([C@H](C)CO)C[C@@H](C)[C@H](CN(C)S(=O)(=O)c2ccc(OC)cc2)O3)cc1`, the relative growth was inactive: 1.
Then `CCOC(=O)C1=C(N)Oc2ccc(Br)cc2[C@H]1[C@H](C#N)C(=O)OCC`, with inactive: 0.97; and `Cc1noc(C)c1S(=O)(=O)Nc1ccc2c(c1)CC(=O)N([C@H](C)CO)C[C@@H](C)[C@@H](CN(C)Cc1ccc3c(c1)OCO3)O2`, with inactive: 0.987; and `CC(C)(C)OC(=O)C[C@@H]1CC=CC[C@@H](CC(=O)N[C@H](CO)Cc2ccccc2)C(=O)N[C@@H](C(C)(C)C)COC1=O`, with inactive: 1.01.
On to `C[C@@H]1CN([C@@H](C)CO)C(=O)Cc2cc(NC(=O)Nc3ccccc3)ccc2O[C@@H]1CN(C)C(=O)Nc1cccc2ccccc12`, for which the relative growth is inactive: 1.01.
Regarding `COc1ccc(NC(=O)Nc2ccc3c(c2)CC(=O)N([C@H](C)CO)C[C@@H](C)[C@@H](CN(C)Cc2ccc(Cl)c(Cl)c2)O3)cc1`, the relative growth was inactive: 1.02.
Consider `C[C@@H]1CCCCO[C@@H](CN(C)CC2CCCCC2)[C@@H](C)CN([C@@H](C)CO)C(=O)c2cc(NC(=O)CCCN(C)C)ccc2O1`, for which the relative growth is inactive: 0.984.
In the case of `CO[C@@H]1CN(C)C(=O)c2cc(NC(=O)Nc3cccc(F)c3)ccc2OC[C@@H](C)N(C(=O)Nc2c(C)noc2C)C[C@@H]1C` it was inactive: 0.989; in that of `Cc1cccc(CN(C)C[C@@H]2Oc3ncc(-c4cc5ccccc5o4)cc3C(=O)N([C@H](C)CO)C[C@@H]2C)c1`, inactive: 0.98; in that of `C[C@H](CO)N1C[C@H](C)[C@H](CN(C)C(=O)Nc2cccc3ccccc23)OCCCC[C@H](C)Oc2ccc(NC(=O)Cc3ccccc3)cc2C1=O`, inactive: 0.997.
Consider `CN(C)CCCCCCNC(=O)[C@H]1C[C@H]2C(=O)N[C@@H](CCCC[N+](C)(C)C)C(=O)N2[C@H]1c1cccc(OCCO)c1`, for which the relative growth is inactive: 0.989.
Then `C[C@@H]1CN([C@@H](C)CO)C(=O)c2cc(NC(=O)C3CC3)ccc2O[C@@H]1CN(C)Cc1ccc2c(c1)OCO2`, with inactive: 0.98.
Then `Cc1cccc(S(=O)(=O)N2C[C@@H](O)COC[C@H]3O[C@H](CC(=O)NCc4ccncn4)CC[C@@H]32)c1`, with inactive: 0.97.
Then `C[C@@H]1CN([C@@H](C)CO)C(=O)c2cccc(NC(=O)c3cnccn3)c2O[C@H]1CN(C)C(=O)Nc1ccc2c(c1)OCO2`, with inactive: 0.996; and `Cc1noc(C)c1NC(=O)Nc1ccc2c(c1)C(=O)N([C@H](C)CO)C[C@@H](C)[C@H](CN(C)C(=O)C1CCCCC1)OCCCC[C@@H](C)O2`, with inactive: 0.985; and `C[C@H](CO)N1C[C@H](C)[C@@H](CN(C)S(C)(=O)=O)Oc2ccc(NC(=O)Cc3cn(C)c4ccccc34)cc2CC1=O`, with inactive: 1.
Turning to `C[C@H]1CN([C@@H](C)CO)C(=O)Cc2cc(NS(=O)(=O)c3ccccc3)ccc2O[C@@H]1CN(C)S(=O)(=O)c1ccc(F)cc1`, the relative growth is inactive: 0.984.
In the case of `C[C@@H]1CN([C@@H](C)CO)C(=O)c2cc(NS(=O)(=O)c3ccc(Cl)cc3)ccc2O[C@@H](C)CCCCO[C@@H]1CN(C)C(=O)c1ccccc1`, the relative growth is inactive: 1.
In the case of `C[C@H](CO)N1C[C@H](C)[C@@H](CN(C)S(=O)(=O)c2ccc3c(c2)OCCCO3)OCc2cnnn2CCCC1=O` it was inactive: 1; in that of `C[C@H](CO)N1C[C@H](C)[C@H](CN(C)C(=O)NC2CCCCC2)Oc2ccc(NS(=O)(=O)c3cn(C)cn3)cc2CC1=O`, inactive: 0.995.
In the case of `C[C@H](CO)N1C[C@H](C)[C@@H](CN(C)Cc2ccc(C(F)(F)F)cc2)Oc2c(NC(=O)NC3CCCCC3)cccc2C1=O` it was inactive: 0.912; in that of `CCc1cnc2c(c1OC)c(=O)n(CCN1CCOCC1)c(=O)n2C`, inactive: 0.976; in that of `OCc1ccccc1-n1cncn1`, inactive: 0.998.
In the case of `N[C@@H]1[C@@H](O)[C@H](O)[C@@H](CO)O[C@H]1O` it was inactive: 1.12; in that of `Cc1ccc(C(=O)Nc2ccc(Nc3ccccc3)cc2)c(C)c1`, inactive: 0.997.
With `CC(C)NC(=O)N(C)C[C@H]1Oc2cc(-c3ccccc3F)ccc2S(=O)(=O)N([C@H](C)CO)C[C@H]1C`, the relative growth is inactive: 1.01.
Then `COCCNC(=O)C[C@@H]1CC[C@@H]2[C@@H](COc3ccc(NC(=O)Nc4cccc(F)c4)cc3C(=O)N2C)O1`, with inactive: 1.01.
In the case of `Cn1cnc(S(=O)(=O)N[C@H]2C=C[C@H](CC(=O)N3CCN(c4ccccc4)CC3)O[C@H]2CO)c1` it was inactive: 1.01.
Then `COCC(=O)N(C)C[C@@H]1Oc2cc(C#CCN(C)C)ccc2S(=O)(=O)N([C@@H](C)CO)C[C@H]1C`, with inactive: 1.01.
In the case of `C[C@@H]1CN([C@H](C)CO)C(=O)Cc2cc(NS(=O)(=O)c3cn(C)cn3)ccc2O[C@H]1CN(C)CC1CC1`, the relative growth was inactive: 0.979.
As to `C[C@H]1CN([C@@H](C)CO)S(=O)(=O)c2ccc(C#Cc3ccncc3)cc2O[C@@H]1CN(C)C(=O)C1CCOCC1`, the relative growth was inactive: 1.01.
For the compound `C[C@@H]1CN([C@@H](C)CO)C(=O)c2cc(NC(=O)Nc3cccc4ccccc34)ccc2O[C@@H](C)CCCCO[C@@H]1CN(C)C`, the relative growth is inactive: 1.01.
Consider `O=C(O)c1ccccc1O`, for which the relative growth is inactive: 0.999.
In the case of `COc1ccc(S(=O)(=O)N(C)C[C@H]2Oc3c(NS(=O)(=O)c4cn(C)cn4)cccc3C(=O)N([C@@H](C)CO)C[C@H]2C)cc1` it was inactive: 1; in that of `C[C@@H]1CN([C@@H](C)CO)C(=O)c2cc(NC(=O)Cc3ccccc3)ccc2O[C@H]1CN(C)Cc1ccc(C(F)(F)F)cc1`, inactive: 0.997.
Then `C[C@H]1CN([C@@H](C)CO)S(=O)(=O)c2ccc(C#CCN(C)C)cc2O[C@@H]1CN(C)C`, with inactive: 0.979.
Consider `O=c1oc2cc(O)ccc2s1`, for which the relative growth was inactive: 0.938.
In the case of `C[C@H](CO)N1C[C@H](C)[C@@H](CN(C)C(=O)Nc2ccc(C(F)(F)F)cc2)Oc2c(NC(=O)c3nc4ccccc4s3)cccc2C1=O` it was inactive: 0.988.
Then `C[C@H]1CN([C@@H](C)CO)C(=O)Cc2cc(NC(=O)CCN3CCOCC3)ccc2O[C@H]1CN(C)Cc1ccccc1`, with inactive: 1.02; and `C[C@@H]1CCCCO[C@H](CN(C)C(=O)Nc2ccc(F)cc2)[C@H](C)CN([C@@H](C)CO)C(=O)c2cc(NC(=O)c3ccncc3)ccc2O1`, with inactive: 0.987.
